According to PubChem BioAssay AID2546 (National Center for Advancing Translational Sciences (NCATS), 2010):
The whole screen tested about 310,000 compounds, of which about 11,000 (3.5%) were called active. Inconclusive results, whose numbers are uncertain, are shown with a selection of clear calls. The call rests on the fitted dose curve; in most records, active means well fitted inhibition curve with a large enough effect; inconclusive means small, poorly fitted or top-dose-only effect, or effect the other way; inactive means flat fitted curve, though single readings scatter. Potencies of inconclusive entries are left out as doubtful fits.

Experiment: VP16 counterscreen qHTS for inhibitors of ROR gamma transcriptional activity;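 further: Gal4-VP16 expression switched on by copper sulfate through the metallothionein promoter; nearly all actives have a fitted effect of over 50% in size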
Details: Drosophila S2 Gal4-VP16 UAS-luciferase, luminescence, 20 h; series mostly up to 53.6 µM
Potency means the concentration at half of the fitted maximal effect; tags describe the fitted curve by direction and shape.

Row | Structure (SMILES) | Potency
1 | O=[N+]([O-])c1ccc2nc(-c3ccccc3)n(OCc3ccc(Cl)cc3)c2c1 | inconclusive [activator, single point]
2 | CCN(CC)CCC(c1ccc(N(C)C)cc1)c1c(OC)cc(OC)c2c(-c3ccccc3)cc(=O)oc12 (configuration not stated) | inconclusive [inhibitor, single point]
3 | O=C(c1ccc(F)cc1)C1CCN(C(=O)NC2CCCCC2)CC1 | inconclusive [inhibitor, single point]
4 | O=C1C=C(NCCO)C(=O)c2cnccc21 | active: 6.31 µM
5 | COc1ccc(OC)c(C(c2nnnn2C2CCCC2)N2CCN(c3ccc(F)cc3)CC2)c1 (configuration not stated) | inactive
6 | O=C(N/N=C/c1cc(Cl)cc([N+](=O)[O-])c1O)C(O)(c1ccccc1)c1ccccc1 | active: 0.891 µM
7 | S=c1[nH]nc(-c2cc(-c3ccccc3)n[nH]2)n1/N=C/c1ccc(Cl)cc1 | inconclusive [inhibitor, partial curve]
8 | CCCN1C(=O)/C(=C/c2ccc3c(c2)OCO3)NC1=S | inconclusive [inhibitor, single point]
9 | Cc1ccc(C(C)C)c(OCC(=O)NN=C2CCCCCCC2)c1 | inconclusive [inhibitor, single point]
10 | COc1ccc(C2Nc3cc(OC)ccc3-n3cccc32)cc1 (configuration not stated) | inactive
11 | CCOc1cc(NC(=S)Nc2cccc(OC)c2)c(OCC)cc1NC(=O)C(C)C | inconclusive [inhibitor, single point]
12 | CC(NCCc1ccc(S(N)(=O)=O)cc1)C(=O)NCCc1ccc(F)cc1 (configuration not stated) | inactive
13 | CC(=O)c1ccc(NC(=O)C2CC(=O)N(Cc3ccccc3)C2)cc1 (configuration not stated) | inconclusive [inhibitor, single point]
14 | Cc1csc2ncnc(NC3CCN(Cc4ccccc4)CC3)c12 | active: 2.82 µM
15 | COc1ccccc1OCCSc1nnnn1-c1ccc(C)cc1 | inactive
16 | O=c1ccsn1Cc1ccccc1 | active: 4.47 µM
17 | CC[N+]1(C)[C@@H]2CC[C@H]1CC(OC(=O)[C@H]1CC[C@@](C(=O)OC3C[C@H]4CC[C@@H](C3)[N+]4(C)CC)(c3ccccc3)c3ccccc31)C2 (some centres not stated) | inactive
18 | Cc1cc(OC(F)F)ccc1NC(=O)Nc1ccc([N+](=O)[O-])cc1 | inconclusive [inhibitor, single point]
19 | Cc1ccccc1Cn1ccc(=NCc2ccccc2)cc1 | inconclusive [inhibitor, partial curve]
20 | O=C(CC1(O)C(=O)N(Cc2cccc3ccccc23)c2ccccc21)c1cccnc1 (configuration not stated) | inconclusive [inhibitor, partial curve]
21 | Cc1cccc(NC(=O)COc2ccc3oc4c(c3c2)CCCC4)n1 | inconclusive [inhibitor, single point]
22 | O=C(Nc1ccccc1)c1ccc(S(=O)(=O)N2CCCCC2)cc1 | inconclusive [activator, partial curve]
23 | Cc1ccccc1NC(=S)NCCc1c[nH]c2ccccc12 | active: 11.2 µM
24 | CN(C)CCCN(C(=O)c1ccc(S(=O)(=O)N2CCCc3ccccc32)cc1)c1nc2ccc(F)cc2s1 | inconclusive [inhibitor, single point]

Row | Structure (SMILES) | Potency
25 | CCOC(=O)c1nn(-c2ccc(Cl)cc2)c2nnc(Cc3ccccc3)c(=O)n12 | inconclusive [inhibitor, partial curve]
26 | Cc1nc2sc(-c3ccccc3)cc2c(=O)n1/N=C/N(C)C | inconclusive [activator, single point]
27 | CN1/C(=C\C(=O)CSc2nnc(NCc3ccccc3)s2)C(C)(C)c2ccccc21 | inconclusive [inhibitor, single point]
28 | O=c1oc2ccccc2cc1-c1csc(NN=C2CCCCC2)n1 | inactive
29 | c1ccc(-c2nc(N3CCN(c4ccccc4)CC3)nc(-n3ccnc3)n2)cc1 | active: 15.8 µM
30 | Cc1ccc(C)c(NC2=C(Cl)C(=O)OC2OC(=O)c2ccco2)c1 (configuration not stated) | inconclusive [inhibitor, single point]
31 | CCN1C(=O)c2ccccc2Sc2ccc(C(=O)NCCN3CCOCC3)cc21 | inactive
32 | O=C(COC(=O)CCN1C(=O)/C(=C\C=C\c2ccccc2)SC1=S)Nc1cc(F)ccc1F | inconclusive [inhibitor, full curve]
33 | O=C1CS/C(=N\NC(=O)c2ccccc2)N1 | active: 15.8 µM
34 | Cc1ccc(/C=N/Nc2nnc(Cl)c3ccccc23)cc1 | active: 12.6 µM
35 | C=CCn1c(-c2csc3ccccc23)n[nH]c1=S | active: 6.31 µM
36 | O=C(Nc1ccccc1)C1(c2ccccc2)CC1(Cl)Cl (configuration not stated) | inconclusive [inhibitor, single point]
37 | O=C1N/C(=N\N=C\c2cccs2)SC1Cc1cccc(Cl)c1 (configuration not stated) | active: 0.708 µM
38 | O=Cc1sc(N2CCOCC2)nc1-c1ccccc1 | inactive
39 | O=C(CSCc1ccccc1Cl)N1CCN(c2ccccn2)CC1 | inconclusive [inhibitor, single point]
40 | COc1ccc(-c2csc(NNC3=NCCCCC3)n2)cc1 | inconclusive [inhibitor, single point]
41 | COc1cc(NC2=Nc3cccc4cccc2c34)cc(OC)c1OC | inconclusive [inhibitor, single point]
42 | COCOc1cc(OC)ccc1C(=O)/C=C\c1ccc2c(c1)OCO2 | inconclusive [activator, single point]
43 | CCN(C(=O)c1ccccc1F)c1nc(-c2ccc(OC)cc2)cs1 | inactive
44 | CC1=C(C(=O)N2CCCC(C(=O)c3cccc4ccccc34)C2)OCCO1 (configuration not stated) | active: 12.6 µM
45 | O=C(NCC(=O)N(CC1CCCO1)C1(C(=O)NC2CCCCC2)CCCCC1)c1ccccc1 (configuration not stated) | inactive
46 | NC(=O)CCC(=O)N1CCCC(C(=O)c2ccc(C(F)(F)F)cc2)C1 (configuration not stated) | inactive
47 | CC(C)CNC(=S)NNC(=O)c1csc2c1CCC(C)C2 (configuration not stated) | inconclusive [inhibitor, single point]
